In PubChem BioAssay AID488969 (Vanderbilt High Throughput Screening Facility, 2010):
Over roughly 110,000 compounds, “z-score” has its median near -0.1; the highest 2% begin near 2. This is one part of the list. The source made the active and inactive calls.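 Rule for the calls: active = z-score in the third read window above 3 or below -3; inactive = the rest.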

biological target: Metabotropic glutamate receptor 8 (Rattus norvegicus) (UniProt P70579); assay: mGluR8 Gi/Go-coupled signaling modulation – cell-based, rat, thallium flux, HTS, primary screen (AID 488969); conditions: HEK293 rat mGluR8, GIRK (G protein-gated inwardly rectifying potassium channel) thallium flux, FluoZin2; at 10 µM; stronger effect = higher value; submaximal glutamate (EC20) added with thallium
Chain of UniProt P70579 (P70579 whole entry, looked up): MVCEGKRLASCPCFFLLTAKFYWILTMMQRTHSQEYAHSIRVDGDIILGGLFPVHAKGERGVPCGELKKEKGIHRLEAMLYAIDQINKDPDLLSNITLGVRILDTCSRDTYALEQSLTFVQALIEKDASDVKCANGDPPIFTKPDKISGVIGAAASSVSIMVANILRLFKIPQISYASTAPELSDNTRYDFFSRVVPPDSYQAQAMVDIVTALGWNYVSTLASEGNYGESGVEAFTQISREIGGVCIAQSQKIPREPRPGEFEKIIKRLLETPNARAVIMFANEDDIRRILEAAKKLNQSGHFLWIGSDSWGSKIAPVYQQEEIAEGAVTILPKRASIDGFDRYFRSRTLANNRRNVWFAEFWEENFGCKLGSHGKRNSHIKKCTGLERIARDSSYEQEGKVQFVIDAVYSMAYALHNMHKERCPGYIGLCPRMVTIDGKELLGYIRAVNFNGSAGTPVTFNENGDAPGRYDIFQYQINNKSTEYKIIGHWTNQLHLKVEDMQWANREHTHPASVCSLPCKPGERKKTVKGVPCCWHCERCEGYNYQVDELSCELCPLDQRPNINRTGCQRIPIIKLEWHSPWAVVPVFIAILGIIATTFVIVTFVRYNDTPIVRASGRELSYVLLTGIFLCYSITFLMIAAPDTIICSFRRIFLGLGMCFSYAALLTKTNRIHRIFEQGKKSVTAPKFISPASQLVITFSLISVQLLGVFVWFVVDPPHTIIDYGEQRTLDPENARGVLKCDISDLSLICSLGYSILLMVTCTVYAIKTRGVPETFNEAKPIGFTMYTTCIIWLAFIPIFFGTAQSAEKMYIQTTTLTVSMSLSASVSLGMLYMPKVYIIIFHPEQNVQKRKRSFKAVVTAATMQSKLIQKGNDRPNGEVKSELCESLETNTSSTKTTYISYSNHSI

Structure (SMILES) | z-score
Cc1nnc(OC(C)C)c2nn(-c3ccccc3F)c(C)c12 | -0.589
COC(=O)c1ccccc1NC(=O)CN(C)S(=O)(=O)c1ccc(OC)cc1 | 0.195
COc1cc(C=C(c2nc3ccccc3s2)c2nc3ccccc3s2)ccc1O | -0.149
CCn1c(COc2cc(C)cc(C)c2)nnc1SCC(=O)N1CCN(c2ccccc2)CC1 | -0.182
CCc1ccc(C(=O)Nc2ccc(S(=O)(=O)Nc3nc(C)cc(C)n3)cc2)o1 | -0.39
Cn1nc(-c2ccccc2)c(C(=O)Nc2ccc(C(F)(F)F)cc2)c1Cl | -0.393
O=C(N/N=C/c1cc(Br)cs1)c1ccccc1[N+](=O)[O-] | -0.395
O=C1c2cccc3cccc(c23)C(=O)N1CCN1CCN(C(=S)Nc2ccc(F)cc2)CC1 | -0.203
Cc1ccc(NC(=O)C2CCC(=O)N2)cc1C (centres undefined) | -0.504
COc1ccccc1NC(=O)CSc1ccc2nnc(-c3cccnc3)n2n1 | -0.277
Cc1cc(C(=O)CSc2nc(N)cc(=O)[nH]2)c(C)n1CCc1ccc(F)cc1 | -0.612
CC(C)(C)NC(=O)CSc1nc2scc(-c3ccccc3)c2c(=O)[nH]1 | -0.345
CSc1nnc2c3ccccc3c3ccccc3c2n1 | 0.0535
COc1ccccc1NC(=O)CCN1C(=O)C2CC=C(Cl)CC2C1=O (centres undefined) | 0.334
Cn1nnc(NCc2cc(Br)ccc2OCc2cccs2)n1 | -1.17
CN(C)S(=O)(=O)c1cc(NC(=O)CN2CCNC(=O)C2)ccc1Cl | -0.12
O=C(CN1CCN(S(=O)(=O)c2ccc(F)cc2)CC1)Nc1cc(C(F)(F)F)ccc1Cl | -0.166
CCCC(=O)n1nc(-c2ccc(OC)cc2)nc1N | -0.082
CCn1c(SCC(=O)Nc2sc3c(c2C(N)=O)CCC(C)C3)nnc1-c1ccco1 (centres undefined) | -0.0158
Cc1cccc(NC(=O)c2cc3n(n2)C(C(F)(F)F)CC(C2CC2)N3)c1C (centres undefined) | -0.161
CN(C)CCNc1ncnc2c1sc1nc(N3CCOCC3)c3c(c12)CC(C)(C)SC3 | 0.0422
CC1(C)C(=O)OC(c2ccco2)C(C)(C)C1=O (centres undefined) | 0.0457
COc1cc(S(=O)(=O)Nc2cc(C)cc(C)c2)ccc1F | -0.0939

Structure (SMILES) | z-score
COc1ccc(-n2c(=S)[nH]c3cc(C(=O)NCCCN4CCCC4=O)ccc3c2=O)cc1OC | -0.333
O=C1c2cnc3nc(SCc4ccccc4)nn3c2CC2c3ccccc3CCN12 (centres undefined) | -0.307
OC(CN1CCN(c2ccccc2)CC1)Cn1c2ccccc2c2ccccc21 (centres undefined) | -0.155
CSC1=NCCN1C(=O)Cc1ccc(Cl)cc1 | 0.392
Cc1cc(OCC(=O)Nc2ccncc2)ccc1Br | 0.365
CCc1ccc(Nc2nnc(SCC(=O)NCCN3C(=O)CSC3=O)s2)cc1 | 0.0282
Cc1ccc(-n2[nH]c(C)c(/C=N/NC(=O)c3cccc([N+](=O)[O-])c3)c2=O)cc1C | 0.186
COc1ccc(C(c2c(O)ccc3ccccc23)N2CCOCC2)c(OC)c1 (centres undefined) | -0.27
CCOC(=O)N1CCN(C(=O)c2ccc3nc(N4CCCCC4)sc3c2)CC1 | -0.424
CCOC(=O)N1CCN(C(=O)C2CCN(C(=O)c3cc(OC)cc(OC)c3)CC2)CC1 | -0.0988
S=C(NCCc1ccccc1)NCc1ccccc1Cl | 0.165
O=C(CSc1nnc(-c2ccco2)n1-c1ccccc1)NCCc1ccccc1 | -0.293
CC(Oc1ccc(Cl)cc1Cl)c1nc(-c2ccc(NC(=O)c3cccnc3)cc2)no1 (centres undefined) | 0.0647
COc1cccc(CN2CC(O)=C(c3nc(-c4ccc(Cl)cc4)cs3)C2=N)c1 | -0.0854
O=C(CN1C(=O)COc2ccccc21)N(Cc1cccnc1)Cc1ccccc1F | 0.362
O=C(Nc1ccc(N2CCCCC2)cc1)c1cncc(Br)c1 | 0.104
COc1ccc(-c2noc(-c3cccc(OC)c3OC)n2)cc1OC | 0.387
CCOC(=O)c1cc(CC)sc1NC(=O)C1CC1 | -1.22
Cc1ccc(-c2cc(C(=O)N3CCN(C(=O)c4ccco4)CC3)no2)cc1 | -0.304
CCC1CCCCN1C(=O)Cn1c(=O)n(CCC(=O)NCc2ccco2)c(=O)c2sccc21 (centres undefined) | -0.0213
O=C(O)c1cccc(NC(=O)C2C3C=CC(C3)C2C(=O)OCC(F)(F)C(F)F)c1 (centres undefined) | -0.359
CCCSC1=N/C(=C\c2ccsc2)C(=O)S1 | 0.449
Cc1cccc(C)c1NC(=O)/C(=C/c1ccco1)c1ccccc1 | -0.268

Structure (SMILES) | z-score
NC(=O)c1ccsc1NC(=O)C1CCCN1S(=O)(=O)c1ccc(Cl)cc1 (centres undefined) | 0.494
CC1/C(=N/O)C(CN(C)C)C2CC1C2(C)C (centres undefined) | -0.153
CCN(CC)c1ccc(/C=C2\NC(=O)NC2=O)cc1 | -0.171
COc1ccc(C(=O)NC2CCN(CC(=O)Nc3cccc(C)c3)CC2)cc1OC | -0.223
O=C(NNC(=O)c1ccccc1[N+](=O)[O-])c1cnccn1 | 0.111
COC(=O)c1c(NC(=O)CSc2nnnn2-c2ccccc2)sc2c1CCC(C)C2 (centres undefined) | -0.121
Cn1c(CNc2cccc(Cl)c2)nnc1SCC(=O)OC1CCCCC1 | -0.274
S=c1[nH]nc(-c2cc3c(s2)-c2ccccc2CC3)o1 | active: 16.3
O=C(NN=C1CCN(Cc2ccccc2)CC1)c1cccc(S(=O)(=O)Nc2ccccc2Cl)c1 | 0.0315
O=C(/C=C/c1ccccc1Cl)NC(=S)Nc1ccccc1C(=O)NC1CCCCC1 | -0.0868
N#Cc1cn(-c2ccccc2)nc1-c1cc2ccccc2oc1=O | -0.0371
COC(=O)c1c(CCl)noc1C(=O)NC(C)C | -0.223
O=C(CCCN1C(=O)c2ccccc2C1=O)N1CCCCC1 | 0.836
Cc1ccc(S(=O)(=O)N2CCN(c3ccc(C(F)(F)F)cc3[N+](=O)[O-])CC2)cc1 | -0.0811
Cc1noc(C)c1S(=O)(=O)N1CCC(C(=O)N2CCN(c3ccc(Cl)cc3)CC2)CC1 | -0.437
O=C(CSc1nnnn1C1CCCC1)Nc1ccc(F)cc1 | 0.179
O=C(CCCCCn1c(=S)[nH]c2ccccc2c1=O)NCc1ccc2c(c1)OCO2 | 0.476
O=C(CN1C(=O)c2ccccc2C1=O)NCC1COc2ccccc2O1 (centres undefined) | 0.443
CCNCCNc1ccc(Cl)cc1[N+](=O)[O-] | -0.222
Cc1ccccc1C(=O)NC1CCN(C(=O)N2CCOCC2)CC1 | -1.1
Cc1ccc(C(=O)OCC(=O)Nc2ccc3c(c2)OCO3)o1 | 0.0228
CCC1CCCCN1CCCNC(=O)C1CCC(=O)N1Cc1ccc(C)cc1 (centres undefined) | 0.925
N#Cc1c(-c2cccs2)cc(C2CC2)nc1SCC(N)=O | -0.0249
